B1: LINE1-full (parent)
chain: UACGUAGGUGGUUUUCCCCUGAUAGUGCUAAGGGGGCCUGGAAGUUUGGACUGGGCAGAGCUCAACACAGCGUGGCAAAGUGGCUGUGGCUAGACUGCCUCUCUGGAUUCCUCGUCACUCAGCAGGGCAUCUCUGAGAGAAAUGCC

The source gives no read counts; variants with many changes may rest on few reads.

Consider 20 variants from the RNAGym collection of RNA variant scans (doi:10.7554/elife.90254).

This data set covers variants of B1. The data set is described as follows: self-cleavage, relative activity (ratio to wild type); higher = more cleavage; in vitro, sequencing; the parent is a self-cleaving ribozyme.
For the variant UACGUAGGUGGUUUUCCCCUGAUAGUGCUAAGGGGGCCCGGAAGUUUGGACUGGGCAGAGCUCAACUCAGCGUGGCUAAGUGGCUGCGGCUAGACUGCCUCUCUGGAUUCCUCGUCACUUAGCAGGGCAUCUCUGAGAGAAAUGCC [U39C A67U A77U U87C C120U], the self-cleavage came out at 0.07.

For UACGUAGGUGGUUUUCCCCUGAUAGUGCUAAGGGGGCCUGGAAGUUUGGACAGGGCAGAGCUCAACACAGCGUGGCAAAGUGGCUGUGGCUAGACUGCCUCUCUGGAUUCCUAGCCACUCAGCAGGGCAUCUCUGAGAGAAAUGCC [U52A C113A U115C], the self-cleavage was found to be 1.09.

As for CACGUAGGUGGUUUUCCCCUGAUAGUGCUAAGGGGGCCUGGAAGCUUGGACUGGGCUGUGCACAACACAGCGUGGCGAAGUGGCUGUGGCUAGACCGCCUCUCUGGAUUCCUCGUCACUCAGCAGGGCAUCUCUGAGAGAAAUGCC [U1C U45C A57U A59U U62A A77G U96C], the self-cleavage was 0.

For UACGUAGGUGGUUUUCCUCUGAUAGUGCUAAGGGGGCCUGGAAGUUUGGACUGGGCAGAGCUCAACGCAGCGUGGCAAAGUGGCUGUGGCUAGGCUGCCUCUCUGGAUUCCUCGUCACUCAGCAGGGCAUCUCUGAGAGGAAUGCC [C18U A67G A94G A140G], the self-cleavage is 0.23.

Consider UACGUAGGUGGUUUUCCCCUGAUAGUGCUAAGGGGGCCUGGAUGUUCGGACUGGGCAGAGCUCAUCACAGCGUGGCAAAGUGGCUGUGGCUAGACUGCCUCUCUGGAUUCCUCGUCACUCAGCAGGGCAUCUCUGAGAGCAAUGCC [A43U U47C A65U A140C], for which the self-cleavage was found to be 0.

Regarding UACGUAGGUGGUUUUCCCCUGAUAGUGCUAAGGGGGCCUGGAAGUUUGGACUGGGCGGAGCUCAACACAGCGUGGCAAAGUGGCUGAGGCUAGACUGCCCCUCUGGAUUCCUCGUCACUCAGCAGGGCAUCUCUGAGAGAAAUGCC [A57G U87A U100C], the self-cleavage turned out to be 0.

Turning to UACGUAGGUGGGUUUCCCCUGAUAGUGCUAAGGGGGCCUGGAAGUUUGGACUGGGCAGAGCUCAACACAGCGUGGCAAAGUGGCUGUAGCUAGACUGCCUCUCUGGAUUCCUCGUCACCCAGCAGGGCAUCUCUGAGAGAAAUGCC [U12G G88A U119C], the self-cleavage came out at 0.06.

As for UACGUAGGUGGCUUUCCCCUGAUAGUGCUAAGGGGGCUUGGGAGUUUGGACUGGGCAGAGCUCAACACAGCGUGGUAAAGUGGCUGUGGCUAGACUGCCUCUCUGGAUUCCUCGUCACUCAGCAGGGCAUCUCUGAGAGAAAUGCC [U12C C38U A42G C76U], the self-cleavage worked out at 1.29.

Regarding UACGUAGGUGGUUUCCCCCUGACAGUGCUAAGGGGACCUGGAAGUUUGGACUGGGCAGAGCUCAACACAGCGUGGCAAAGUGGCUGUGGCUAGGCUGCCUCUCUGGAUUCCUCGUCACUCAGCAGGGCAUCUCUGAGAGAAAUGCC [U15C U23C G36A A94G], the self-cleavage came out at 0.25.

For the variant UACGUAGGUGGUUUUCCCCCGGUAGUGCUAAGGGGGCCUGGAAGUUAGGACUGGGCAGAGCUCAACACAGCGUGGCAAAGUGGCUGUGGCUAGACUGCCUCUCUGGAUUCCUCGUCACUCAGCGGGGCAUCUCUGAGAGAAAUGCC [U20C A22G U47A A124G], the self-cleavage was found to be 0.97.

Turning to UACGUAGGUGGUUUUCCCCUGAUAGUGCUAAGGGGGCCUGGAAGUUUGGACUGGGCAGAGCUCAACACAGCGUGGCAAAGUGGCUGUGGCUAGACUGCCUCUCUGGAUUCCUCGUCACUCAGCUGGGCUUCUCUGAGAGGAGUGCC [A124U A129U A140G A142G], the self-cleavage was 1.66.

As for UACGUAGGUGGUUUUCCCCUGAUAGUGCUAAGGGGGCCUGGAAGUUCGGACUGGGCAGAGCUCACCACAGCGUGGCAAAGUGGCAGUGGCUGGACUGCCUCUCUGGAUCCCUCUUCACUCAGCAGGGCAUCUCUGAGAGAAAUGCC [U47C A65C U85A A92G U109C G114U], the self-cleavage was 0.

Turning to UACGUAGGUGGUUUUCCCCUGAUAGCGCUAAGGGGGCCUGGAAGUUUGAACUGGGCAGAGCUCAACACAGCGUGGCAGAGUGGCUGUGGCUAGACUGCCUCUCUGGAUUCCUCGUCACUCAGCAGGGCAUCUCUGAGAGAAAUGCC [U26C G49A A78G], the self-cleavage was 0.48.

In the case of UACGUAGGUGGUUUUCCCCUGAUAGUGCUAUGGGGGCCUGGAAGUUUGGACUGGGCAGAGCUCAACACAGCGUGGCAAAGUGGCUGUGGCUAGACCGCCUCUCUGGACUCCUCGGCACUCAGCAGGGCAUCUCUGAGAGAAAUGCC [A31U U96C U108C U115G], the self-cleavage is 0.

As for UACGUAGGUGGUUUUCCCCUGAUAGUGCUAAAGGGGCCUGGAAGUUUGGACUGGGCAGAGCUCAACACAGCGUGGCGAAGUGGCUGUGGCUAGACUGCCUCUCUGGAUUCCUCGUCACUCAGCAGGGCAUCUCCGAGAGAAAUGCC [G32A A77G U134C], the self-cleavage turned out to be 1.95.

For the variant UACGUAGGUGGUCUUCCCCUGAUAGUGCCAAGGGGGCCUGGAAGUUUGGACUGGGCAGAGCUCAACACAGCGUGGCAAAGUGGCUGUGGCGAGACUGCCUCUCUGGAUUCCUCGUCACUCAGCAGGGCAUCUCUGAGAGAAAUGCC [U13C U29C U91G], the self-cleavage stood at 0.15.

In the case of UACGUAGGUGGGUUUCCCCCGAUAGUGCUAAGGGGGCCUGGAGGUUUGGACUGGGCAGAGCUCAACACAGCGUGGCAAAGUGGCUGUGGCUAGACUGCCUCUCUGGAUUCCUCGUCACUCAGCAGGGCAUCUCUGAGAGAAAAGCC [U12G U20C A43G U143A], the self-cleavage came out at 0.98.

Regarding UACGUAGGUGGGUUUCCCCUGAUAGUGCUAAGGGGGCCUGGAAGUUUGGACUGGGCAGAGCUCGACACAGCGUGGCAAAGUGGCUGUGGCUAGACUGCCUCUCUGGGUUCCUCGUCACUCAGCAGGGCACCUCUGAGAGAAAUGCC [U12G A64G A107G U130C], the self-cleavage amounted to 0.

UACGUAGGUGGUUUUCCCCUGAUAGUACUAAGGGGGCCUGGAAGUUUGGACUGGGCAGAGCUCGACACAGCGCGGCAAAGUGGCUGUGGCUAGACUGCCUCUCUGGAUUCCUCGUCACUCAGCAGGGCAUCUCUGAGAGAAAUGCC [G27A A64G U73C]: the self-cleavage turned out to be 0.24.

As to UACGUAGGUGGUUUUCCCCUGAUAGUGCUAAGGGGGCCUGGAAGUUUGGACAGGGCAGAGCUCAACACAGCGUGGCAAAGUGGCUGUGGCAAGACUGCCUCUCUGGAUUCCUCGUCACUCAGCUGGGCAUCUCUGAGAGAAAUGCC [U52A U91A A124U], the self-cleavage was found to be 0.63.
